Source: PubChem BioAssay AID1347165 (National Center for Advancing Translational Sciences (NCATS), 2019)
Among all 220,000 compounds or so, about 5,700 (2.6%) were called active. Inconclusive means that the source gave no clear call. Such entries were picked first, then a sample of the others. Calls follow the shape of the dose curve; as a rule, active = well fitted inhibition curve with a large enough effect; inconclusive = small, poorly fitted or top-dose-only effect; inactive = no such curve, though single readings can be large or run the other way. Potencies beside an inconclusive call are fits to weak or partial responses and may not hold up.

Molecular target: Lysine-specific demethylase 5B (Homo sapiens) (UniProt Q9UGL1)
Assay: Primary screen for KDM5B Histone Demethylases FDH-coupled qHTS; also: nearly all actives have a fitted effect of over 70% in size; as to activity change, negative = inhibition: 0% is about no effect
Conditions: FDH-coupled NADH fluorescence (FDH is formaldehyde dehydrogenase); activity change, negative = inhibition: at 57.7 µM (top of the series) unless noted
How it was run: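 Coupled FDH/NAD⁺ fluorescence readout. KDM5BΔAP 200 nM final; compound titration, 10 min RT preincubation; substrate mix 12.5 µM H3K4me3, 25 µM 2-OG, 50 µM Fe(II), 100 µM ascorbate, 0.25 mM NAD⁺, 0.25 U/mL FDH; ΔRFU over 30 min.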
Potency is read from the fitted curve at half-maximal effect; tags tell the direction and shape of the fitted curve.

Sequence of UniProt Q9UGL1 (Q9UGL1 whole entry, looked up): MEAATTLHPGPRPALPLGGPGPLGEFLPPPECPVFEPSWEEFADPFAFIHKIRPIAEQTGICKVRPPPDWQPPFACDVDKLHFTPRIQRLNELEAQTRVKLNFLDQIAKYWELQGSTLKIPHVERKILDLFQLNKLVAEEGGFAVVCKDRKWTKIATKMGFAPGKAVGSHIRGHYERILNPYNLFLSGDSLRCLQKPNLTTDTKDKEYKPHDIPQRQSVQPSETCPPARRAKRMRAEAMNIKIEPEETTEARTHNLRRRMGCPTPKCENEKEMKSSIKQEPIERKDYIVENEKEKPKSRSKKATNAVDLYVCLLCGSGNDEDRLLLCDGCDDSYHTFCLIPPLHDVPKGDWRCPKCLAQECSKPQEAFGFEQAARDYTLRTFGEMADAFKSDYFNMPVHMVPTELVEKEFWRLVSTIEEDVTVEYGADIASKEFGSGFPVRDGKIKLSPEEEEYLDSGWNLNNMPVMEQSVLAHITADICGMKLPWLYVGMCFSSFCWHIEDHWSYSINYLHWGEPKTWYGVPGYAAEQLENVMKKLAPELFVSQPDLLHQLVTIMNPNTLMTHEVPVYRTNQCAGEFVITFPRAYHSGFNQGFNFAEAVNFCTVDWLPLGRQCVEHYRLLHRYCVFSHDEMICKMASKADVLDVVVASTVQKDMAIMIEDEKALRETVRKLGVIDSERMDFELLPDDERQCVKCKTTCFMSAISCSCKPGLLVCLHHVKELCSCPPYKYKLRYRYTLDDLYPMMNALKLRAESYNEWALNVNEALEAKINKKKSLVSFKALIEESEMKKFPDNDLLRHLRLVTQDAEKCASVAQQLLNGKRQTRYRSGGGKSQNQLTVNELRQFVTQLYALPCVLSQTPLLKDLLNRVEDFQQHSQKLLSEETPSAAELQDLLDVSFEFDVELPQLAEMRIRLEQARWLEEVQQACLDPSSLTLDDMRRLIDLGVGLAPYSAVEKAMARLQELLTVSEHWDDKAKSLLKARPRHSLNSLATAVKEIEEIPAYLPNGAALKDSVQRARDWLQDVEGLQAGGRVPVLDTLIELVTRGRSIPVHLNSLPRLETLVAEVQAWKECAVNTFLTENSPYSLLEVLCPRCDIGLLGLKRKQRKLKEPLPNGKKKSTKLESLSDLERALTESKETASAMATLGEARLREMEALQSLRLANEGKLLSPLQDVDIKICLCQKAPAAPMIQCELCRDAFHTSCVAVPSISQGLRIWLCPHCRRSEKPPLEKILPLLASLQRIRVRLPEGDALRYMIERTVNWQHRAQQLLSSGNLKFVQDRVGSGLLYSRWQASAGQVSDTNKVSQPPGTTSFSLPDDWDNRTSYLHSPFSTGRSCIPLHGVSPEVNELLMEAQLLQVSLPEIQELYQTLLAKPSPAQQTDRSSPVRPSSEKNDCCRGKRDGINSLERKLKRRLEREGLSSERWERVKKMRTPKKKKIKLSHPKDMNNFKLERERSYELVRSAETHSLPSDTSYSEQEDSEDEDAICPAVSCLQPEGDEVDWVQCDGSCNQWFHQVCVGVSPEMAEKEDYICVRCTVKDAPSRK

Row | SMILES | activity change, negative = inhibition | Potency
1 | COC(=O)CNC(=O)c1ccc(C)cc1 | inactive: -8.98% | –
2 | Cc1cc(=O)oc2cc(OS(=O)(=O)c3cccc(OC(F)(F)F)c3)ccc12 | – | inconclusive: 39.8 µM [inhibitor, single point]
3 | Cc1ccc(-n2c(=O)c3ccc(C(=O)NCc4ccccc4Cl)cc3n(CC(=O)Nc3cccc(Cl)c3)c2=O)cc1 | – | inconclusive: 15.8 µM [inhibitor, partial curve, poor fit]
4 | Cc1ccc(/C=C2\SC(=S)N(CC3CCCO3)C2=O)o1 (configuration not stated) | – | inconclusive: 22.4 µM [inhibitor, partial curve, poor fit]
5 | CCOCC1(C)COc2ccc(C(=O)Nc3cccc(N(C)C)c3)cc2N1 (configuration not stated) | – | inconclusive: 22.4 µM [inhibitor, partial curve]
6 | CCOc1ccc(-c2cc3c(=O)n(CCNC(=O)c4ccccc4OC)ccn3n2)cc1 | – | active: 31.6 µM
7 | Cc1ccc(C(=O)CCS(=O)(=O)c2ccc(F)cc2)cc1 | – | inconclusive: 44.7 µM [inhibitor, partial curve, poor fit]
8 | CN(C)c1cccc(C(=O)NC2CCCN(c3cc(-c4ccc(Cl)cc4)[nH]n3)C2)c1 (configuration not stated) | – | inconclusive: 39.8 µM [inhibitor, single point]
9 | O=C(NC1(C(F)(F)F)C(=O)Nc2c1c(=O)[nH]c(=O)n2Cc1ccco1)c1ccccc1 (configuration not stated) | inactive: -9.7% | –
10 | Cc1c(Cl)cccc1NC(C)C(=O)Nc1ccc(Cl)cn1 (configuration not stated) | inactive: 3.48% | –
11 | CCOc1ccc(C(=O)NCc2nnnn2-c2ccc(C)c(C)c2)cc1OCC | inactive: 8.75% | –
12 | c1ccc(Oc2nccn3c(-c4ccc(CNCc5ccn[nH]5)cc4)cnc23)cc1 | – | inconclusive: 44.7 µM [inhibitor, partial curve, poor fit]
13 | Cc1ccccc1Nc1sc(C(=O)c2ccc(F)cc2)c(N)c1C(=O)NCCc1ccccc1 | – | inconclusive: 15.8 µM [inhibitor, partial curve, poor fit]
14 | CN1[C@@H](CCC(=O)N2CCN(c3ccccn3)CC2)CNC(=O)[C@@H]2[C@H]1CCN2Cc1ccc(O)cc1 | – | active: 31.6 µM
15 | CC(=O)Nc1ccc(-c2ccc(=O)n3c2[C@@H]2C[C@@H](CN(S(=O)(=O)c4ccccc4)C2)C3)cc1 | inactive: -18.6% | –
16 | O=C1NC(CCc2ccccc2)C(=O)N1Cc1coc(-c2cccc(F)c2)n1 (configuration not stated) | inactive: 13.5% | –
17 | O=C(/C=C/c1ccc(Cl)cc1)c1ccc2ccccc2c1O | inactive: -29% | –
18 | COc1ccc(Cl)cc1NC(=O)Cn1ncc2c3ccccc3n(Cc3ccccc3)c2c1=O | – | inconclusive: 35.5 µM [inhibitor, partial curve, poor fit]
19 | CN(Cc1ccsc1)C(=O)c1ccc(C#CC(C)(C)O)o1 | – | inconclusive: 22.4 µM [inhibitor, single point]
20 | O=C(O)CCC1CCN(c2cc(NC3CC3)ncn2)CC1 | inactive: -14.8% | –
21 | CCn1c(C)c(C)c2cc(C(=O)NCc3ccc(N(C)C)cc3)ccc21 | – | inconclusive: 28.2 µM [inhibitor, partial curve, poor fit]
22 | COc1ccc(CNC(=O)CN(c2cc(C(F)(F)F)ccc2Cl)S(C)(=O)=O)cc1 | inconclusive: -33.4% [inhibitor] | –
23 | COc1cccc(-c2cc3c(=O)n(CCNC(=O)c4ccccc4F)ccn3n2)c1 | – | inconclusive: 39.8 µM [inhibitor, partial curve, poor fit]

Row | SMILES | activity change, negative = inhibition | Potency
24 | O=C(N/N=C\c1ccc([N+](=O)[O-])o1)c1cncc(Br)c1 | – | inconclusive: 25.1 µM [inhibitor, partial curve, poor fit]
25 | CS(=O)(=O)Oc1cc2oc(=O)c3c(c2cc1Cl)CCCC3 | – | inconclusive: 17.8 µM [inhibitor, partial curve, poor fit]
26 | CSc1ccc(CNC(=O)Cc2csc3ccccc23)cc1 | inactive: -19.5% | –
27 | O=C(NC1CCCN(c2cc(-c3ccc(F)cc3)[nH]n2)C1)c1ccc2nc[nH]c2c1 (configuration not stated) | – | inconclusive: 22.4 µM [inhibitor, partial curve, poor fit]
28 | Cc1nc2cccnc2n1CC1CCCN(S(=O)(=O)Cc2ccccc2Cl)C1 (configuration not stated) | inactive: -13.3% | –
29 | COc1ccccc1-c1cc(-c2ccccc2)nc2c(C)noc12 | – | inconclusive: 6.31 µM [inhibitor, partial curve, poor fit]
30 | COc1cccc(Nc2sc(C(=O)c3ccc4c(c3)OCO4)c(N)c2S(=O)(=O)c2ccccc2)c1 | – | inconclusive: 1.78 µM [inhibitor, full curve, poor fit]
31 | CNS(=O)(=O)c1ccc(NC(=O)CCc2c(C)nc3c4ccccc4nn3c2C)cc1 | – | inconclusive: 28.2 µM [inhibitor, partial curve, poor fit]
32 | COc1ccc(-c2ccc3ncc(Nc4cccnc4OC)n3n2)cc1OC | – | active: 22.4 µM
33 | O=C(c1cc(F)ccc1Cl)N1CCC2(CC1)NC(=O)N(Cc1ccccc1)C2=O | inactive: -7.62% | –
34 | O=C(c1cc(-c2cccc(C(F)(F)F)c2)c2nncn2n1)N1CCCC1 | – | active: 50.1 µM
35 | O=C(CCc1c[nH]c2ccccc12)OCC(=O)N1CCOCC1 | inactive: 8.47% | –
36 | Cc1nc(-c2ccc(S(=O)(=O)N3CCN(c4cccc(Cl)c4)CC3)cc2)co1 | – | inconclusive: 28.2 µM [inhibitor, partial curve, poor fit]
37 | CC(=O)N1CCC(C(=O)NC[C@@H]2C=C(C)[C@H](CC(=O)N(C)Cc3ccccc3)C[C@H]2C(C)C)CC1 | inactive: 2.84% | –
38 | Cc1ccc(-c2nnc3ccc(-c4ccoc4)nn23)nc1 | – | active: 31.6 µM
39 | Cn1c([C@H]2CCN(Cc3cnc4ccccc4c3)C2)nc2ccccc21 | – | inconclusive: 31.6 µM [inhibitor, partial curve, poor fit]
40 | CCOC(=O)CCNC(=O)N1CCCN(S(C)(=O)=O)C(c2ccccc2)CC(=O)NCC1 (configuration not stated) | inactive: -3.13% | –
41 | O=C(Cn1cnnn1)NCc1ccc(-c2cnc3c(Oc4ccccc4)nccn23)cc1 | – | inconclusive: 17.8 µM [inhibitor, partial curve, poor fit]
42 | CN(Cc1ccccc1)Cc1c(O)ccc2c(=O)c(-c3ccccc3)c(C(F)(F)F)oc12 | – | inconclusive: 3.55 µM [inhibitor, partial curve, poor fit]
43 | CCN(C(=O)c1sc2cc(OC)ccc2c1Cl)c1ccccc1 | – | inconclusive: 17.8 µM [inhibitor, partial curve, poor fit]
44 | Cc1ccc(NC(=O)CN2c3ccccc3S(=O)(=O)c3ccccc32)cc1F | – | inconclusive: 25.1 µM [inhibitor, single point]
45 | O=C(NCCCn1ccnc1)C1CCCN(c2nc(-c3ccccc3)nc3c2CCC3)C1 (configuration not stated) | – | inconclusive: 39.8 µM [inhibitor, single point]
46 | Cc1ccc(-c2noc([C@@H]3C[C@@H](O)CN3C3CCCCC3)n2)cc1F | inactive: -13.1% [at 86.2 µM] | –

Row | SMILES | activity change, negative = inhibition | Potency
47 | COc1cc2c(cc1OC)C1=CC3(C(=O)Nc4ccc(F)cc43)C(C#N)=C(N)N1CC2 (configuration not stated) | – | inconclusive: 12.6 µM [inhibitor, partial curve, poor fit]
48 | Cc1ccc(NC(=O)/C(C#N)=C/c2ccccc2Cl)cc1C | – | inconclusive: 14.1 µM [inhibitor, partial curve, poor fit]
49 | CC1(C(=O)N2CCC2)CN(Cc2ccccc2)Cc2ccc(N3CCOCC3)nc21 (configuration not stated) | – | inconclusive: 17.8 µM [inhibitor, partial curve, poor fit]
50 | O=C(NCCS(=O)(=O)N1CCN(c2ccccc2F)CC1)c1ccc(C(F)(F)F)cc1 | inactive: 21.6% | –
51 | O=C(N[C@H]1[C@H](O)[C@H](O)C[C@@H]1c1ccccc1)c1ccccn1 | inactive: 5.44% [at 86.2 µM] | –
52 | CN1CC(=O)N(C2CCCNC2)Cc2c(NC3CCCCCC3)ncnc21 (configuration not stated) | – | inconclusive: 44.7 µM [inhibitor, partial curve]
53 | COc1ccc(-c2cc3c(cn2)CN(Cc2ccncc2)CCN3)cc1 | – | active: 35.5 µM
54 | Cc1cccc(Cn2c(=O)n(CCCCC(=O)NCc3ccc4c(c3)OCO4)c(=O)c3ccccc32)c1 | inactive: -22.2% | –
55 | Clc1ccccc1Cc1nc(-c2ccc(OC3CCNC3)cc2)no1 (configuration not stated) | – | inconclusive: 15.8 µM [inhibitor, partial curve]
56 | CCOc1cccc(/C=C/c2ccc3cccc(O)c3n2)c1O | – | inconclusive: 25.1 µM [inhibitor, partial curve, poor fit]
57 | CCn1ncc(C(=O)N[C@@H]2CN(c3ncccn3)C[C@H]2CN(C)C)c1C | – | active: 25.1 µM
58 | Cc1ccc(N/N=C/C=C/c2ccccc2)cc1Cl | – | inconclusive: 39.8 µM [inhibitor, single point]
59 | Cc1ccc(Cl)cc1NC(=O)c1cc2c(=O)n3cccc(C)c3nc2n1C | – | inconclusive: 31.6 µM [inhibitor, partial curve, poor fit]
60 | O=C(NC1CCCCC1)C1CCCN(S(=O)(=O)c2cccc3cccnc23)C1 (configuration not stated) | inactive: 29.2% | –
61 | O=C(NCc1ccc(F)cc1)c1cnc(N2CCOCC2)c2ccccc12 | – | inconclusive: 17.8 µM [inhibitor, single point]
62 | Cc1cc(C)cc(NC(=O)C2CCCN(c3cnccn3)C2)c1 (configuration not stated) | – | inconclusive: 17.8 µM [inhibitor, single point]
63 | CC(C)n1c(N2CCN(C)CC2)nc2c1c(=O)[nH]c(=O)n2C | inactive: -1.44% | –
64 | CCOc1cc(CNC(=O)c2ccc3c(c2)nc2n3CCCCC2)ccc1OC | – | inconclusive: 15.8 µM [inhibitor, partial curve, poor fit]
65 | CCOC(=O)CCc1c(C)[nH]n(-c2nc3ccccc3[nH]2)c1=O | – | inconclusive: 20 µM [inhibitor, partial curve, poor fit]
66 | CC(C)N(Cc1ccc(C(N)=O)cc1)C1CC1 | inactive: -10.2% | –
67 | CC(=O)Nc1ccc(NC(=O)c2ccccc2Nc2ccccc2)cc1 | – | inconclusive: 35.5 µM [inhibitor, single point]
